# Data as given in ChEMBL document CHEMBL4888484, “Replenishing the malaria drug discovery pipeline: Screening and hit evaluation of the MMV Hit Generation Library 1 (HGL1) against asexual blood stage Plasmodium falciparum ,using a nano luciferase reporter read-out” (2022).
# In all, about 150,000 compounds went through this assay and about 540 (0.36%) showed an effect of 50% or more. This is one part of the list.
# Tested on: Plasmodium falciparum
# Experiment: Primary screen in NF54 nanoGlo assay, in single point, at 2uM, 72h; a lower Z score goes with more inhibition
# Assay type: functional, Erythrocyte
# Conditions: timepoint 72 hour
Structure (SMILES),% Inhibition [%],Z score
Cc1cc(C(=O)NC2CCN(C(=O)c3cn[nH]c3)CC2)ccc1F,1,-0.11
Cc1ccc(CNS(=O)(=O)c2ccc3c(c2)C(C)(C)CN3CC(=O)N2CCCC2)cc1,-1,0.08
CN1CCC(CNC(=O)c2ccc(-c3ccc(C#N)nc3)cc2)(N(C)C)CC1,4,-0.48
Cn1cc(-c2noc(-c3ccc(C#N)cc3)n2)ccc1=O,36,-5.18
Cc1nn(C[C@@H](O)CN2C(=O)c3ccccc3C2=O)c(C)c1Br,-8,1.01
CNC(=O)CN1CCC(CN(C)c2noc(-c3ccccc3)n2)CC1,-2,0.17
C#CCNC(=O)N1CCC(C(C)(C)C)C(O)C1 (stereo not given),-6,0.5
C[C@H]1CN(C(=O)c2ccc(-c3c(O)ccc4ccccc34)cc2)CCCO1,-25,2.95
C=CCNC(=O)[C@H]1CCCC[C@H]1C(=O)NCC1(O)CCCCC1,2,-0.24
Cc1ccc(CN(C)[C@@H](C)CC(N)=O)cc1,-15,1.77
CC(C)c1noc([C@H](C)NS(=O)(=O)c2cccc3nn(C)nc23)n1,-5,0.7
Cc1cc(O)c([C@H](c2ccccc2)N2CCN(c3ccccc3)CC2)c(=O)n1Cc1ccccn1,6,-0.83
COc1c(C)cc(S(=O)(=O)NC[C@@H](c2ccsc2)N2CCc3ccccc3C2)cc1C,-16,2.01
COC(=O)c1cccc(OCc2noc(C3CCOC3C(C)C)n2)c1 (stereo not given),-4,0.44
O=C1NC[C@H]2CN(S(=O)(=O)C3CCC(F)(F)CC3)CCN12,-2,0.34
Cc1ccc(C(=O)NCCNc2ncccn2)cn1,0,-0.04
CCc1ccccc1C(=O)NCC1CCN(c2nc(N)c3cnn(C)c3n2)CC1,1,-0.22
COC[C@@]1(C)CN(C(=O)NCc2nc(C(F)(F)F)no2)CCO1,-12,1.33
Cn1nccc1C1(O)CN(C(=O)CCCC2CCCCC2)C1,13,-1.74
Cc1ccc(C)c(Cn2ccn3nc(-c4ccc(C)c(C)c4)cc3c2=O)c1,-7,0.91
O=C1N[C@H](CC(=O)N2CCOC(c3ccccc3)C2)C(=O)Nc2ccccc21 (stereo not given in full),1,-0.1
CC1=Nc2ccccc2C12CCN(CCO[C@@H]1CCCCO1)CC2,-1,0.1

Structure (SMILES),% Inhibition [%],Z score
COCC[C@H]1CN(S(=O)(=O)CC2CCCC2)CCO1,-20,1.97
CCN1CCN([C@H]2CCN(Cc3ccc(OC)c(Cl)c3)C2)CC1,4,-0.44
C[C@@H](c1cccnc1)N(C)CCNS(C)(=O)=O,-12,1.09
O=C(NCCc1csc(-c2ccccc2)n1)C1CCN(C(=O)c2ccc(F)c(Cl)c2)CC1,-14,1.78
CC(C)c1nc(CC(=O)NCC(C)(C)N(C)C)cs1,-10,1.36
CN(CCCc1nccn1C)C(=O)Nc1ccc2c(c1)OCC(=O)N2C,-2,0.19
C[C@@H](C(=O)NS(=O)(=O)CC(C)(C)C)c1ccc(F)cc1F,-9,0.92
Cc1ccc(-c2nc3c(OCc4ccccc4)cccn3c2NC2CCCCC2)cc1,1,-0.22
CC(C)Cc1noc([C@H](C)NC(=O)N(C)CCN2CCCCCC2)n1,-10,1.24
Cc1ccc(-c2cc(-c3ccccc3)nc3c2COc2ccc(F)cc2-3)cc1,1,-0.1
COCCc1ncc(CN2CC(Oc3cccc(OC)c3)C2)cn1,1,-0.11
Cc1noc(C)c1CN1CC2(CCN(c3cc(N(C)C)ncn3)CC2)CC1=O,-1,0.24
COCCNC(=O)C[C@H](c1ccccc1Cl)c1cn(Cc2ccccc2)c2ccccc12,-1,0.1
CC(=O)N1C[C@@H]2CN(C(=O)c3ccc(Cl)cc3)CCN2C(C)(C)C1,10,-1.26
O=C(NCc1ccccn1)c1cnc(-c2ccccc2)nc1N1CCC(Cc2ccccc2)CC1,17,-2.17
O=C1CN(C(=O)CN(CC2CCCCC2)C2CC2)CCN1,-8,1.03
CC1(NC(=O)NCc2ccc(C3CC3)cc2)CCOC1C1CC1 (stereo not given),-4,0.67
O=C(NCC1(N2CCOCC2)CC1)N1CCC[C@H]1c1cccc(F)c1,3,-0.28
Cc1cc(NC(=O)COc2ccccc2Br)c[nH]c1=O,5,-0.6
CC[C@@H](CO)NCc1c[nH]nc1C(C)(C)C,-10,1.38
CCc1nc(C)c(C(=O)N[C@H]2C[C@H]3OCC[C@@H]23)o1,-20,3.09
N#Cc1cnc(NCCCOC2CCCC2)nc1N,-2,0.44

Structure (SMILES),% Inhibition [%],Z score
Cc1ccc(Cn2cccc2C(=O)C(=O)Nc2cccc3ccccc23)cc1C,-5,0.43
Cc1ccccc1-c1cncc(C(=O)N2CCCCC2)c1,-1,0.12
C[C@@H](c1ccc(-c2nc(N)nc3[nH]cnc23)cc1)N1CCCCC1,-9,1.19
Cc1noc(C(C)C)c1-c1nc(-c2ccc(Br)o2)no1,-20,2.13
CC1(C)NC(=O)N(Cc2noc(-c3cnccn3)n2)C1=O,-5,1.04
O=C(CN1CCCCS1(=O)=O)N[C@@H]1Cc2ccccc2[C@H]1O,-5,0.67
CCOC(=O)Cc1csc(NC(=O)N[C@@H](CC)c2nnc3n2CCCCC3)n1,-5,0.79
CC(C)Oc1nccnc1N1CCC[C@H](CO)CC1,-1,0.14
CN(CCc1ncccn1)CC(=O)NC1(C#N)CCCCC1,-7,1.13
COc1cccc(CN2CC[C@H](N(CCc3noc(C4CCC4)n3)C(C)=O)C2)n1,0,-0.01
Cc1ccc(Cl)c(CN2CCN3C(=O)OC[C@H]3C2)c1F,8,-1.08
Cc1ccc(NC(=O)CN(C)S(=O)(=O)c2c[nH]c(C(=O)N3CCCC3)c2)c(Br)c1,-19,1.87
CNC(=O)c1nc[nH]c1-n1nc(-c2ccc(C)cc2)cc1N,-5,0.82
Cc1nnc(CN2CCN(Cc3nnc(C)s3)[C@H](c3cnn(C)c3)C2)s1,14,-1.79
Cc1ccc(NC2(C(=O)N3CCNC(=O)[C@@H]3CCO)CCCC2)cc1,-3,0.44
CC(=O)N[C@H]1C[C@@H](c2ccc(Cl)cc2)O[C@@H](c2cnn3cccnc23)C1,1,-0.16
c1cc(-c2ccc3oc(C4CC4)nc3c2)cc(-c2cc[nH]n2)c1,-9,1.25
N#Cc1ccc(OCc2nc3ccccc3o2)c(Cl)c1,4,-0.77
Cc1cc(C(=O)N2CCCn3cncc3C2)cc2sc(N)nc12,-17,1.53
Cc1noc(C)c1C(C)NS(=O)(=O)CC(C)c1ccccc1 (stereo not given),-28,5.33
O=C1N[C@@H](c2cc(Cl)c3c(c2)OCCCO3)Nc2ncccc21,-1,0.14
CCc1cc(C(=O)N(CC)c2ccccc2)c2c(C)noc2n1,32,-4.35

Structure (SMILES),% Inhibition [%],Z score
CCCc1ccc(OCCNC(=O)Cn2nc(C)cc2N)cc1,-9,0.97
Cc1cc(C)cc(S(=O)(=O)NCc2nc3cccnc3n2Cc2ccc(F)cc2)c1,1,-0.12
O=C(CCC(F)(F)F)c1cccnc1,5,-0.77
C[C@@H]1CN(Cc2nccn2C)C[C@]1(C)O,-10,1.91
Cc1cc(C)c(-c2cnc(-n3cnnc3)c(C)c2)c(C)c1,-3,0.65
CCC1CN(Cc2ncccn2)C(CC)CN1Cc1ncccn1 (stereo not given),-18,1.93
CNS(=O)(=O)c1cccc(NC(=O)c2ccn(C)c2C)c1,-6,1.08
Fc1ccc(CNCc2cccnc2N2CCN(c3ccccn3)CC2)cc1F,4,-0.53
O=C(c1ccc2nsnc2c1)N1CCN(C(=O)c2cc3n(n2)CCCC3)CC1,-5,0.78
Cc1cccc(C(=O)N2C(C(=O)NCC3CCCO3)COC23CCC(C)CC3)c1 (stereo not given),0,0.03
Cc1cccc(S(=O)(=O)N2CCCO2)c1Cl,-9,1.88
Cc1ccc([C@H](CNC(=O)c2nn(C)cc2C)N2CCCC2)o1,-7,1.3
CCn1cc(Br)cc1C(=O)N1CC[C@H](C(=O)O)C1,-19,2.27
CC1CN(Cc2cnn(C3(C)CCS(=O)(=O)C3)c2)c2ccccc21 (stereo not given),4,-0.6
CC(C)Cc1noc(CNCCCNS(C)(=O)=O)n1,-5,0.45
O=C(CN1CCCC1)Nc1cccc2nonc12,-1,0.22
Cc1nc(C)c(C(=O)NCCOCc2ccc(Cl)cc2Cl)o1,-7,0.94
CC(=O)N1C[C@@H]2C[C@H](NC(=O)c3ccc(C)cn3)CN2C(=O)[C@@H]1C,-5,0.74
COc1cc2c(cc1OC)CN(C(=O)CN(C)c1ccc(O)cc1)CC2,18,-2.28
